Out of some 52,000 compounds screened, about 1,700 (3.3%) were called active. Cut-off read from the data, not from the text of the source: active = survival mostly below about 52% (no sharp cut-off); inactive = mostly above about 56%. The list shows a part of the results.

We go through 55 molecules from PubChem BioAssay AID463173 (ICCB-Longwood Screening Facility, Harvard Medical School, 2010).

In this assay the test system is Wild type. Nature of the assay: growth inhibition of S. aureus wild type versus tarO mutant, primary screen, teichoic acid synthesis inhibitors, RN4220, OD600 (AID 463173). The note with it: S. aureus RN4220 wild type/DeltatarO growth, OD600, 18 h, stronger effect = lower value, screened at 18.75 µg/mL (by protocol).
As to `O=C(O)c1c2c(nc3ccc(S(=O)(=O)N4CCC(C(=O)NCc5ccc(Cl)cc5)CC4)cc13)CCCC2`, the survival was inactive: 80%.
The same measure for `COc1ccc(S(=O)(=O)NCC(c2ccco2)N2CCN(c3ccccc3F)CC2)cc1C` (stereo not given): inactive: 99%.
Regarding `COc1cc(/C=C/c2nc3cc(Cl)ccc3c(=O)n2-c2ccc(C)cc2C)cc(OC)c1OC`, the survival is inactive: 91%.
As to `CSc1ccc(NC(=O)Cn2nnnc2-c2ccccc2F)cc1`, the survival is inactive: 86%.
For `CCOC(=O)c1c(C)oc2nc(C)nc(N3CCN(c4cccc(C)c4C)CC3)c12` the value was inactive: 89%.
Regarding `Cc1cc(Nc2cccc(C(F)(F)F)c2)nc2ccc(NC(=O)c3cccnc3)cc12`, the survival is inactive: 130%.
The same measure for `CCc1cccc(NC(=O)c2cccc3c2C(=O)N(C2CCCCC2)C3)c1`: inactive: 84%.
Regarding `COc1ccc(Nc2ncnc3c2nc2n3CCCC2)cc1Cl`, the survival is inactive: 59%.
As for `COc1nnc(-c2ccc(N3CCCCC3)c(NC(=O)c3ccccc3)c2)c2ccccc12`, the survival was active: -6%.
On to `O=C(NCC(c1cccnc1)N1CCc2ccccc21)C(=O)Nc1ccccc1F` (stereo not given), for which the survival is inactive: 108%.
In the case of `CCOC(=O)c1c(C)n(S(=O)(=O)c2ccc(C)cc2)c2ccc(NS(=O)(=O)c3ccc(C)cc3)cc12`, the survival was inactive: 82%.
Take `CC(NC(=O)c1cc(-c2ccc(Cl)cc2)on1)c1ccccc1` (stereo not given): the survival was inactive: 140%.
As to `COc1ccc(CNC(=O)c2ccc3c(c2)N(Cc2ccccc2)CCS3)cc1`, the survival was inactive: 87%.
Take `CCOC(=O)c1nnn(CC(=O)NC(=O)Nc2ccc(F)cc2)c1C(=O)OCC`: the survival was inactive: 133%.
Take `Cc1ccc(-n2nc3cc(C)c(NC(=O)Cc4ccc(Cl)cc4)cc3n2)cc1`: the survival is inactive: 66%.
Take `Cc1ccccc1C(=O)Nc1ccc2oc(-c3ccc(Cl)c(Cl)c3)nc2c1`: the survival is inactive: 77%.
Regarding `O=C(COc1ccccc1)NS(=O)(=O)c1ccc(N=NN2CCOCC2)cc1`, the survival was inactive: 105%.
For `Cc1ccccc1Nc1nnc(-c2ccc(C)c(S(=O)(=O)N3CCCCC3)c2)c2ccccc12`, the survival is inactive: 111%.
Regarding `O=C(NCC(c1ccc2c(c1)OCO2)N1CCN(c2ccccc2)CC1)c1ccccc1` (stereo not given), the survival is inactive: 66%.
On to `CC(C)Oc1ccc(C(=O)Nc2nc3c(s2)CC(C(C)(C)C)CC3)cc1` (stereo not given), for which the survival was inactive: 113%.
Regarding `Cc1oc2ncn(CC(C)C)c(=O)c2c1C(=O)N(Cc1ccccc1)C(C)C`, the survival is inactive: 67%.
Take `CN=C1S/C(=C\c2ccc(N3CCCC3)cc2)C(=O)N1C`: the survival is inactive: 118%.
For `Cc1ccc(Cn2c(C)c3cnn(CC(=O)N4CCN(c5ccc(F)cc5)CC4)c(=O)c3c2C)cc1`, the survival was inactive: 100%.
`COc1cc(OC)c(NC(=O)c2cn(C)c(=O)c3cc(OC)c(OC)cc23)cc1Cl`: the survival was inactive: 61%.
Consider `O=C(/C=C/c1ccccc1)N1CCN(Cc2cc(=O)n3nc(-c4ccccc4Cl)sc3n2)CC1`, for which the survival was inactive: 73%.
In the case of `O=C(CN1C(=O)C2(SCC(=O)N2c2ccc(Cl)cc2)c2ccccc21)NCCc1ccccc1` (stereo not given), the survival is inactive: 74%.
As for `COc1ccc(Cl)cc1NS(=O)(=O)c1c(C)[nH]c(=O)[nH]c1=O`, the survival is inactive: 83%.
Consider `CCOc1ccccc1NC(=O)c1c(NC(=O)c2ccncc2)sc2c1CCC(C(C)(C)C)C2` (stereo not given), for which the survival was inactive: 131%.
Regarding `Cc1ccc(O)c(NC(=O)CCSc2nc(-c3ccco3)cc(C(F)(F)F)n2)c1`, the survival is inactive: 48%.
Regarding `CN(C)c1ccc(NC(=O)CSC2=Nc3ccccc3C3=NC(CC(=O)NCc4ccc5c(c4)OCO5)C(=O)N23)cc1` (stereo not given), the survival was inactive: 124%.
As for `Cc1ccc(S(=O)(=O)Nc2c(C)nc3nc(C)[nH]n3c2=O)c(C)c1`, the survival was inactive: 127%.
The same measure for `Oc1ccc(NCc2ccccc2OCc2ccccc2Cl)cc1`: inactive: 82%; for `COc1ccc(Cl)cc1NC(=O)c1c(NCc2cccs2)sc2c1CCCC2`: inactive: 83%; for `Cc1cccc(-n2ncc(C(=O)Nc3ccc4c(c3)OCO4)c2C2CCN(C(=O)OC(C)(C)C)CC2)c1`: inactive: 89%.
`Cc1ccc(NC(=O)Cn2cnc3c(oc4ccccc43)c2=O)cc1`: the survival is inactive: 90%.
As to `CC(C)C1N(c2ccccc2)CCN1c1ccccc1`, the survival is inactive: 110%.
With `Cc1ccc(C(=O)c2oc3ccccc3c2NC(=O)COc2ccc(C(C)(C)C)cc2)cc1`, the survival is inactive: 78%.
For `Cc1ccc(COc2cccc3cc(-c4noc(-c5ccc(C)cc5)n4)c(=O)oc23)cc1`, the survival is inactive: 91%.
With `COC(=O)c1ccc(NC(=O)CSc2nc3c(c(=O)n(C)c(=O)n3C)n2Cc2ccccc2)cc1`, the survival was inactive: 79%.
Turning to `COc1ccc(C(=O)NCc2nnc(SCC(=O)Nc3ccc(F)cc3)n2-c2ccccc2)cc1`, the survival is inactive: 136%.
In the case of `Cc1cc(Nc2ccc(Cl)cc2)n2cnnc2n1`, the survival was inactive: 83%.
For `CC(=O)N1CCc2cc(S(=O)(=O)CCC(=O)N3CCN(c4ccccc4F)CC3)ccc21`, the survival was inactive: 117%.
For `Cc1ccccc1-c1noc(-c2cc(C(C)C)[nH]n2)n1` the value was inactive: 92%; for `Cc1ccc2[nH]c(=O)c(CN(CC3COCCO3)C(=O)Nc3ccccc3F)cc2c1` (stereo not given), inactive: 102%; for `COc1ccccc1Cc1nc2ccccc2nc1SCC(=O)N1CCCc2ccccc21`, inactive: 82%.
For the molecule `CCOc1ccccc1N1CC(c2nc3ccccc3n2CCOc2ccccc2OC)CC1=O` (stereo not given), the survival was inactive: 107%.
Consider `COc1ccc(-c2nnc(SCC(=O)c3ccc([N+](=O)[O-])cc3)o2)cc1OC`, for which the survival is inactive: 79%.
Turning to `N#C/C(=C\c1ccc(-c2ccc(Cl)c(C(=O)O)c2)o1)c1nc2ccccc2[nH]1`, the survival was inactive: 68%.
The same measure for `Cc1ccc(-n2c(SCc3ccccc3C)nc3[nH]ncc3c2=O)cc1C`: inactive: 85%.
Take `O=C(NCc1ccccc1Cl)C(=O)NCC(c1cccs1)S(=O)(=O)c1ccccc1` (stereo not given): the survival is inactive: 135%.
For the molecule `Cc1cccn2c(=O)c3cc(C(=O)NC(C)c4ccccc4)c(=N)n(CCOCCO)c3nc12` (stereo not given), the survival was inactive: 75%.
`COc1ccc2c(c1)Cc1sc(NC(=O)c3ccc(Cl)cc3)nc1-2`: the survival is inactive: 82%.
The same measure for `CC(=O)N1CCCc2ccc(NC(=O)c3ccc(C(F)(F)F)cc3)cc21`: inactive: 136%; for `Cc1ccccc1-c1noc(-c2ccc(N3CCCC3)c([N+](=O)[O-])c2)n1`: inactive: 85%; for `CC(C)c1ccc(-c2noc(SCC(=O)N(C)c3ccc(F)cc3)n2)cc1`: inactive: 127%.
